Results from PubChem BioAssay AID504706 (National Center for Advancing Translational Sciences (NCATS), 2011).
Out of some 320,000 compounds screened, about 200 (0.062%) were called active. This list was built around the results that the source calls inconclusive (neither active nor inactive); the mix of calls is not that of the screen. Calls come from the whole dose curve; as a rule, active = well fitted activation curve with a large enough effect; inconclusive = small, poorly fitted or top-dose-only effect; inactive = no such curve, though single readings can be large or run the other way. No potency is given beside an inconclusive call; the fits are too rough.

Test: qHTS assay for re-activators of p53 using a Luc reporter; note: nearly all actives have a fitted effect of over 45% in size; for activity change, positive = activation: % of control where 0% means no effect
Details: H1299 p53-A138V BP100-luciferase reporter, luminescence, 24 h; series mostly up to 92.2 µM; activity change, positive = activation: at the top concentration
Summary of the method: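 H1299 (p53-null), stable ts p53-A138V + BP100-Luc; 1000 cells/well, Opti-MEM/10% FBS; cpd 4 pt, 1:5; 24 h, 37 deg C, 5% CO2; detection reagent 10 min RT; luminescence.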
Potency is the fitted concentration of half-maximal effect; tags give direction and shape of the fitted curve.

SMILES	activity change, positive = activation	Potency
C/C(=C\C(=O)c1ccc(Cl)s1)N(C)C	inactive: 2.27%	
CC(=O)NC(Cc1cc(C)ccc1C)C(=O)N1CCN(C(=O)Nc2ccc(C(C)=O)cc2)CC1 (stereo not drawn)	inactive: -5.08%	
O=C(N/N=C/c1ccc2cccnc2c1)c1ccco1	inactive: 14.7%	
COc1ccnc(N2CCN(c3ccc(Cl)cc3)CC2)c1C#N		inconclusive [activator, single point]
CCC(=O)NC(=S)Nc1ccc(-c2nc3ccccc3s2)cc1		inconclusive [activator, full curve, poor fit]
CSC1CCCCC1(O)CSc1nc2ccccc2o1 (stereo not drawn)		inconclusive [activator, partial curve, poor fit]
COc1cc(/C=C(\C#N)C(=O)Nc2cccc(C(=O)O)c2)ccc1OCc1ccc(F)cc1		inconclusive [activator, partial curve, poor fit]
COc1ccc(NC(=O)c2cc(C(C)C)on2)c(OC)c1		inconclusive [activator, partial curve, poor fit]
COc1ccc(C2=Nn3c(nnc3-c3ccccc3F)SC2)cc1OC1CCCC1		inconclusive [activator, partial curve, poor fit]
CCN(CC)C(=O)c1sc(NC(=O)Cc2ccc(OC)cc2)c(C#N)c1C	inactive: -7.95%	
CCCCn1c(O)c(/C=C/C=C/C=Nc2ccccc2)sc1=S	inactive: 6.69%	
COc1ccc(-c2nc(NC(=O)CSc3nnc4ccccn34)ns2)cc1		inconclusive [activator, full curve, poor fit]
CCN(CC(=O)NCc1ccc(Cl)cc1)C(=O)CSCC(=O)Nc1ccc(OC)cc1	inactive: 2.81%	
Cc1cc(C(=O)N/N=C/c2cccnc2)c(C)o1	inactive: 5.51%	
O=[N+]([O-])c1ccccc1/C=N/NC1=NCCCCC1		inconclusive [activator, full curve, poor fit]
COc1ccccc1-c1cnn2c(NCCc3ccccc3)cc(C)nc12		inconclusive [activator, partial curve, poor fit]
COc1ccc2cc(CCNS(=O)(=O)c3ccc(NC(C)=O)cc3)c(=O)[nH]c2c1	inactive: -2.73%	
c1ccc(-c2csc(Nc3cccnc3)n2)nc1		inconclusive [activator, partial curve, poor fit]
O=C1c2ccccc2NC(c2ccco2)N1/N=C/c1ccco1 (stereo not drawn)	inactive: 12.1%	
O=C(/C=C/NCC(=O)c1ccccc1)c1ccc(Br)cc1		inconclusive [activator, full curve, poor fit]
Cc1c(C(=O)Nc2ccccc2)sc2nc3n(c(=O)c12)CCCCC3		inconclusive [activator, partial curve, poor fit]
CCNC(=O)/C(C#N)=C/c1c(N2CCN(c3ccc(OC)cc3)CC2)nc2c(C)cccn2c1=O	inactive: -7%	
COC(=O)C1CCN(C(=O)COC(=O)CNC(=O)c2ccc(Cl)cc2Cl)CC1	inactive: -2.65%	
O=C(NCCSc1ccccc1)c1ccco1		inconclusive [activator, partial curve, poor fit]
CC(C)c1ccc(Nc2nnc(SCC(=O)NCC3CCCO3)s2)cc1 (stereo not drawn)		inconclusive [activator, partial curve, poor fit]

SMILES	activity change, positive = activation	Potency
Nc1nc(-c2ccccc2)nc2sc3c(c12)CCCC3		inconclusive [activator, partial curve, poor fit]
CS(=O)(=O)N(CC(=O)NCc1ccco1)c1ccc(Cl)c(C(F)(F)F)c1	inactive: 11.9%	
S=c1[nH]nc(CSCCOc2ccccc2)o1	inactive: -3.04%	
Cn1c(-c2ccc(F)cc2)cc2onc(-c3ccccc3Cl)c2c1=O		inconclusive [activator, full curve, poor fit]
CC(C(=O)N(C)C1CCS(=O)(=O)C1)N1C(=O)/C(=C/c2cccs2)SC1=S (stereo not drawn)		inconclusive [activator, partial curve, poor fit]
N/C(=N\OC(=O)/C=C/c1ccccc1)c1cccnc1	inactive: 24.4%	
COCCNc1nc(-c2cc3ccccc3o2)cs1		inconclusive [activator, partial curve, poor fit]
Cc1ccc(S(=O)(=O)Nc2cccc(-c3ccc(N4CCCCCC4)nn3)c2)cc1		inconclusive [activator, partial curve, poor fit]
Cc1cccc(C2=NN(c3ccc(Br)cc3)[C@@H](C(=O)N3CCOC3=O)[C@@H]2c2ccc(Cl)cc2)c1		inconclusive [activator, partial curve, poor fit]
CC(=O)Nc1sc2c(c1-c1nc3ccccc3s1)CN(C(C)C)CC2	inactive: 3.59%	
CCOC(=O)c1cc2c(s1)-c1ccccc1CC2	inactive: 17.3%	
Cc1nn(-c2cccc(Cl)c2)c2nc(C(F)(F)F)[nH]c(=O)c12		inconclusive [activator, partial curve, poor fit]
CCNCCNC(=O)c1c(O)c2c([nH]c1=O)CCCC2		inconclusive [activator, partial curve, poor fit]
O=C(CSc1nnc(-c2ccccc2Cl)o1)Nc1ccc2c(c1)OCCO2		inconclusive [activator, partial curve, poor fit]
CCN(CC)c1ccc(/C=C/C(=O)c2ccc(Br)cc2)cc1		inconclusive [activator, partial curve, poor fit]
Cc1noc(C)c1CSCC(=O)Nc1nc(-c2ccc(F)c(F)c2)cs1	inactive: 1.18%	
C=CCNC(=O)c1nc2ccccc2s1		inconclusive [activator, partial curve, poor fit]
CC(=O)c1cnc(N(C)C)s1	inactive: 2.37%	
O=C(Nc1ncccc1O)c1ccc(C(=O)c2ccccc2)cc1		inconclusive [activator, full curve, poor fit]
Cc1ccc(CNC(=O)CCNC(=O)c2ccco2)cc1		inconclusive [activator, partial curve, poor fit]
COC(=O)/C=C/COc1ccccc1[N+](=O)[O-]		inconclusive [activator, single point]
COc1cc(/C=N/NC(=O)c2cc(-c3ccccc3)sc2N)cc(OC)c1OC	inactive: -2.61%	
CC[n+]1c(/C=C/c2ccc(OC(C)=O)c(OC)c2)ccc2ccccc21	inactive: -3.01%	
CC(=O)N(/N=C1\Sc2ccccc2C1=O)c1ccccc1	inactive: 12.1%	
COc1ccccc1C(CNC(=O)c1ccc(NS(=O)(=O)c2ccc(F)c(C)c2)cc1)N(C)C (stereo not drawn)	inactive: 17.7%	

SMILES	activity change, positive = activation	Potency
CCCOc1ccc(C(=O)Nc2nc(C)c(Cc3ccc4c(c3)OCO4)s2)cc1		inconclusive [activator, single point]
COc1ccc2nc(/C(C#N)=C\c3ccc(Oc4ccc([N+](=O)[O-])cn4)cc3)[nH]c2c1	inactive: -14.3%	
Cc1ccc(C(=O)Nc2ccccc2C(=O)NC(C(=O)O)C(C)C)cc1 (stereo not drawn)		inconclusive [activator, full curve]
Cc1ccc(-c2csc(NC(=O)CSc3nc4ccccc4c(=O)n3CCCN(C)C)n2)cc1		inconclusive [activator, partial curve, poor fit]
O=C(OCC(=O)c1ccc[nH]1)c1ccc(Cl)c(Cl)c1	inactive: -0.346%	
CCC(C)c1ccc(NC(=O)c2c([N+](=O)[O-])cnn2CC)cc1 (stereo not drawn)		inconclusive [activator, full curve, poor fit]
O=C(c1ccccc1)N1CCC(=O)N1c1ccccc1	inactive: -1.13%	
CCn1ncc(/C=C/C(=O)c2ccccc2)c1C		inconclusive [activator, partial curve, poor fit]
COc1ccc2nc(C)cc(SCC(=O)N/N=C/c3ccccc3)c2c1	inactive: -6.11%	
Cc1nc2cc(NC(=O)COc3ccc(C#N)cc3)ccc2n1-c1ccccc1	inactive: 4.76%	
CCOC(=O)c1sc(NC(=O)Nc2ccccc2)cc1C		inconclusive [activator, partial curve, poor fit]
CC(=O)Nc1ccc(SCC(=O)c2ccc(Br)s2)cc1		inconclusive [activator, partial curve, poor fit]
Cc1ccc(S(=O)(=O)N(C)C)cc1NC(=S)NC(C)CCCC(C)C (stereo not drawn)	inactive: 5.77%	
CCCCCCSc1nsc(NC(C)=O)n1		inconclusive [activator, partial curve, poor fit]
CCc1ccc(-c2cc(C(=O)N3N=C(C(F)F)CC3(O)C(F)F)c3ccccc3n2)cc1 (stereo not drawn)		inconclusive [activator, single point]
COc1ccc(N2CCN(C(=O)CN3C(=O)NC4(CCCCCC4)C3=O)CC2)cc1	inactive: -6.69%	
CCOc1ccc(-n2c(-c3ccccc3)c[nH]c2=S)cc1	inactive: 1.53%	
COc1ccc(NC(=O)/C=C/c2ccccc2)cn1		inconclusive [activator, partial curve, poor fit]
N#C/C(=C\c1ccc(Sc2ccccc2)o1)c1nc2ccccc2[nH]1		inconclusive [activator, partial curve, poor fit]
CCOc1ccc(NC(=O)c2ccc(N)cc2)cc1	inactive: 19.1%	
CCc1nnc(NC(=O)C2COc3ccccc3O2)s1 (stereo not drawn)		inconclusive [activator, partial curve, poor fit]
CCc1nc(SCC(=O)NCc2ccco2)c2c(=O)n(C)c(=O)n(C)c2n1	inactive: -11.9%	
C/C(=N\NC(=O)C1CC1)c1ccc2c(c1)OCCO2	inactive: 3.2%	
